Data: ChEMBL document CHEMBL1201862, “PubChem BioAssay data set” (2004)

The compounds below were run on NCI-H322M (assay: DTP human tumour cell line panel, 48 h).

Row | SMILES | GI50
1 | NCc1ccc(C(=O)O)cc1 [AMINOMETHYLBENZOIC ACID] | inactive: > 100 µM
2 | Nc1nc(N)c(CCCCc2ccccc2)c(N)n1 | inactive: > 100 µM
3 | C=CCOc1ccc(C2C(C(=O)OC)C(=O)CC(O)(c3ccccc3)C2C(=O)OC)cc1OC (stereo unspecified) | inactive: 26.3 µM
4 | c1ccc2cc3c(cc2c1)OP1(Oc2cccc4cccnc24)(O3)Oc2cc3ccccc3cc2O1 | inactive: 5.43 µM
5 | CCOC(=O)/C(C(=O)Nc1ccc(Cl)cc1)=C(/N)N1CCOCC1 | inactive: > 100 µM
6 | O=C(c1cc(Br)ccc1O)c1cc(Br)ccc1O | inactive: 17 µM
7 | NC(=S)N/C=C1\C(=O)Oc2ccccc2C1=O | inactive: 44.9 µM
8 | O=C(OCC1OC(n2nc(Cn3nnc(-c4cccnc4)n3)n(-c3cccc4ccccc34)c2=S)C(OC(=O)c2ccccc2)C1OC(=O)c1ccccc1)c1ccccc1 (stereo unspecified) | inactive: > 100 µM
9 | COc1ccc(OC)c2c1C1CCC(=O)N1CN2C(C)=O (stereo unspecified) | inactive: > 100 µM
10 | CCCCOCCOC1=CC(=O)c2c(O)ccc(O)c2C1=O | inactive: 1.67 µM
11 | COC(=O)CC[C@@H](C)[C@H]1CC[C@H]2[C@@H]3CC[C@@H]4C[C@H](O)CC[C@]4(C)[C@H]3CC[C@]12C | inactive: 19.2 µM
12 | COc1cc(/C=C2\CCC/C(=C\c3ccc(O)c(OC)c3)C2=O)ccc1O [CYCLOVALONE] | inactive: 6.1 µM
13 | O=C1c2cc([N+](=O)[O-])ccc2NC2C(O)c3ccccc3N12 (stereo unspecified) | inactive: 46.7 µM
14 | COc1cc(NCCC(=O)O)c2ncccc2c1 | inactive: > 100 µM
15 | CCOC(=O)C(C)N1C(=O)c2ccccc2S1(=O)=O (stereo unspecified) | inactive: > 100 µM
16 | Cc1ccc2c(=O)c(-c3nnsn3)c[nH]c2n1 | inactive: > 100 µM
17 | Cc1cn(CC(=S)NCCc2c[nH]c3ccccc23)c(=O)[nH]c1=O | inactive: > 100 µM
18 | CCN(CC)CCCN1CCc2c([nH]c3ccccc23)C1c1cccnc1 (stereo unspecified) | inactive: > 100 µM
19 | S=C1SC(c2ccc(Cl)cc2)(c2ccc(Cl)cc2)c2ccccc21 | inactive: 77.6 µM
20 | O=C(NNC(=O)c1ccccc1O)c1ccc(O)cc1 | inactive: 43.6 µM
21 | CN1N(c2ccccc2)C(=O)C2=NC=C(C#N)C(=N)C21C (stereo unspecified) | inactive: > 100 µM
22 | Cc1c(C(=O)C/C(=N/NC(=O)CC#N)C(N)=O)[n+]([O-])c2ccccc2[n+]1[O-] | inactive: > 100 µM
23 | CNC(=O)N(CCC#N)CCCN(C(=O)N(C)C)c1ccccc1 | inactive: > 100 µM

Row | SMILES | GI50
24 | Cc1oc2nc(N(C)C)n3c(C)nnc3c2c1C | inactive: > 100 µM
25 | Oc1c(OCc2nnc(CCCCCCCCc3nnc(COc4ccc5ccccc5c4O)n3Nc3ccccc3)n2Nc2ccccc2)ccc2ccccc12 | inactive: 16 µM
26 | COc1ccccc1/C=C\C(=O)C1COCN1 (stereo unspecified) | inactive: 18.3 µM
27 | FC(F)(F)c1nc2cc(SSc3cc4nc(C(F)(F)F)[nH]c4cc3Cl)c(Cl)cc2[nH]1 | inactive: > 100 µM
28 | C=C(C1=CC(=O)C(C)(C)O1)[C@@H]1CC=C([C@@H]2CC[C@H]3[C@@]2(C)CC[C@H]2C(C)(C)C(=O)[C@H](O)C[C@]32C)[C@H](O)O1 | inactive: 11.8 µM
29 | CC(=O)N1C/C(=C\c2ccccc2)C(=O)/C(=C/c2ccccc2)C1 | inactive: 17.7 µM
30 | CN1CC(C(=O)C2C(=O)c3ccccc3C2=O)C(=O)C(=O)C(C(=O)C2C(=O)c3ccccc3C2=O)C1 (stereo unspecified) | inactive: > 100 µM
31 | COC1=C(OC)C(=O)C(Cc2c(Cl)nc3sccn23)=C(C)C1=O | inactive: 15.7 µM
32 | COC(=O)C[S+]([O-])c1ccccc1 (stereo unspecified) | inactive: 49 µM
33 | BrC(/C=N/Nc1nnc(-c2ccccc2)c(-c2ccccc2)n1)C(Br)c1ccccc1 (stereo unspecified) | inactive: 24.8 µM
34 | CCC1OC2C(CC=C(C)C)=C3OC(C)(O)C(C)(CC)C(O)C3=C3OC(=O)C=C1C32 (stereo unspecified) | inactive: 50.6 µM
35 | COc1ccc2cc(C(=O)CCC(=O)O)ccc2c1 | inactive: > 100 µM
36 | CN1C(Cl)=NS(=O)(=O)c2ccccc21 | inactive: > 100 µM
37 | COc1ccc(N2C(=O)C3c4[nH]c5ccc(Br)cc5c4C4CCC(C(C)(C)C)CC4C3C2=O)cc1 (stereo unspecified) | inactive: > 100 µM
38 | Fc1ccc(Nc2nc(Cl)c3nc[nH]c3n2)cc1Cl | inactive: 89.3 µM
39 | COC(=O)Nc1nc2cc(S(=O)(=O)n3nnc4ccccc43)ccc2[nH]1 | inactive: > 100 µM
40 | COc1cc(OC)c2c(=O)c3cccc(C)c3n(C)c2c1 | inactive: 63.7 µM
41 | O=C(CCCN1CCC(C(O)c2ccc(F)cc2)CC1)c1ccc(F)cc1 (stereo unspecified) | inactive: 49.9 µM
42 | C(=N\c1ccc(-c2nc3ccccc3[nH]2)cc1)/c1cccs1 | inactive: > 100 µM
43 | COc1cc(S(=O)(=O)Nc2nc(-c3ccc(/N=C/c4ccccc4O)cc3)cs2)ccc1Cl | inactive: 36.2 µM
44 | CC(C)=CCC/C(C)=C/CC/C(C)=C/CC/C(C)=C/CC/C(C)=C/CC/C(C)=C/CC/C(C)=C/CC/C(C)=C/CC/C(C)=C/CO [SOLANESOL] | inactive: > 100 µM
45 | CC(=O)NNc1nc(C)c(C(=O)NNC(=O)C(=O)Nc2c(Cl)cc([N+](=O)[O-])cc2Cl)s1 | inactive: 47.1 µM
46 | c1ccc(N2N=C(c3ccco3)CC2c2ccco2)cc1 (stereo unspecified) | inactive: > 100 µM

Row | SMILES | GI50
47 | Nn1c(=O)n(Cc2ccccc2)n(-c2ccccc2)c1=O | inactive: > 100 µM
48 | CN(C)CCCC1c2ccccc2Oc2ccc(C(F)(F)F)cc21 (stereo unspecified) | inactive: 14.5 µM
49 | CC(C)[C@H](C)/C=C/[C@@H](C)C1CC[C@H]2[C@@]34C=C[C@]5(C[C@@H](O)CC[C@]5(C)[C@H]3CC[C@]12C)OO4 (stereo partly specified) | inactive: 32.7 µM
50 | CCCCCCC(=O)C/C(CCC(=O)N(Cc1ccccc1)Cc1ccccc1)=N\Nc1ccc([N+](=O)[O-])cc1[N+](=O)[O-] | inactive: > 100 µM
51 | COC(=O)CC(C(C(=O)OCc1ccccc1)C(C)O)N1C(=O)OC(c2ccccc2)C1c1ccccc1 (stereo unspecified) | inactive: > 100 µM
52 | CC(C)NCC(O)c1ccc(OCc2ccccc2)c(OCc2ccccc2)c1-c1ccccc1 (stereo unspecified) | inactive: 1.63 µM
53 | COC(=O)CN(CC(O)C(NC(C)=O)C(O)C=O)C(=O)OCc1ccccc1 (stereo unspecified) | inactive: > 100 µM
54 | Cc1cc(Cl)nc2nc(Cl)c(N)cc12 | inactive: 12.1 µM
55 | Cc1c2c(n(CCN(C)C)c1C)NN=C(C#N)S2(=O)=O | inactive: > 100 µM
56 | Cc1csc2nc(-c3ccc(Cl)c([N+](=O)[O-])c3)c(/C=N/NC(=N)N)n12 | inactive: 1.63 µM
57 | Cn1c(=O)c2c(nc3n(CCCCl)c(=O)ccn23)n(C)c1=O | inactive: > 100 µM
58 | COc1cc(C2C(Cl)C(=O)N2NC(=O)c2ccc(NC(C)=O)cc2)ccc1O (stereo unspecified) | inactive: > 100 µM
59 | Clc1ccc(-c2noc(CN3CCCCC3)n2)cc1 | inactive: > 100 µM
60 | CCOC(=O)/C(C#N)=C/c1ccc(SCc2ccco2)c([N+](=O)[O-])c1 | inactive: > 100 µM
61 | O=C(Cc1ccccc1)Nn1c(-c2ccccc2)nc2ccccc2c1=O | inactive: > 100 µM
62 | COc1ccc(S(=O)(=O)c2ccccc2[N+](=O)[O-])cc1 | inactive: > 100 µM
63 | O=C(/C=C/c1ccc(OCCCCCCCCCCOc2ccc(/C=C/C(=O)c3ccc(Cl)cc3)cc2)cc1)c1ccc(Cl)cc1 | inactive: > 100 µM
64 | O=C1C[C@H]2CC3(CC[C@H]2CN1)OCCO3 | inactive: > 100 µM
65 | CN(C)c1ccc(C2CC(C)(O)Oc3cc4c(cc32)OCO4)cc1 (stereo unspecified) | inactive: 92 µM
66 | C[N+](C)([O-])CCOc1cc2c(c3ccccc13)-c1ccccc1C2=O | inactive: 19.1 µM
67 | CC1(c2cc3c(cc2Br)OCO3)SCCCS1 | inactive: 33.2 µM
68 | COc1cc(/C=C2\N=C(c3ccccc3)N(c3ccc(C(=O)c4ccccc4)cc3N3C(=O)/C(=C/c4cc(OC)c(OC)c(OC)c4)N=C3c3ccccc3)C2=O)cc(OC)c1OC | inactive: 27.2 µM
69 | COc1ccc(-c2nc3ncccn3c2-c2ccc(SC)cc2)cc1 | inactive: 1.83 µM

Row | SMILES | GI50
70 | c1ccc2c(c1)Sc1ccccc1N2CC1CN2CCC1CC2 (stereo unspecified) [MEQUITAZINE] | inactive: 11.5 µM
71 | COc1ccc(C(=O)Nc2ccccc2)cc1[N+](=O)[O-] | inactive: > 100 µM
72 | COc1ccc2cc(CNCCCCCCCCNCc3ccc4cc(OC)ccc4c3)ccc2c1 | inactive: 3.93 µM
73 | CC(C)(C)[Si](C)(C)OC[C@H](/C=C\CCCC(=O)O)NC1(c2ccccc2)c2ccccc2-c2ccccc21 | inactive: 23.7 µM
74 | Cc1n[nH]c(=O)n1/N=C/c1ccc([N+](=O)[O-])cc1 | inactive: 87.1 µM
75 | C=C(C)C12CC3CC/C(=N/O)C(C1)C3(N1CCOCC1)C/C2=N/O (stereo unspecified) | inactive: > 100 µM
76 | CCOC(=O)C1=C(C)NC(=S)NC1c1ccccc1 (stereo unspecified) | inactive: > 100 µM
77 | CCc1cccc(C)c1NC(=O)C(=O)Cc1nc2ccccc2s1 | inactive: > 100 µM
78 | CCCCCCCCCCCC(=O)OCCOCCOCCOCCOCCOC(=O)CCCCCCCCCCC | inactive: > 100 µM
79 | CCC1CC(C)=CCN1S(=O)(=O)c1ccc(C)cc1 (stereo unspecified) | inactive: 18.7 µM
80 | COC(=O)/C(=N\NC(N)=S)C(C(=O)OC)C(=O)C(=O)Nc1ccc(C)cc1 (stereo unspecified) | inactive: > 100 µM
81 | Clc1ccc(-c2c3nc(c(-c4ccc(Cl)cc4)c4ccc([nH]4)c(-c4ccc(Cl)cc4)c4nc(c(-c5ccc(Cl)cc5)c5ccc2[nH]5)C=C4)C=C3)cc1 | inactive: > 100 µM
82 | COC(=O)C1C(=O)O[C@@H](c2ccc(OC)cc2)C1C(=O)OC (stereo partly specified) | inactive: > 100 µM
83 | Cl.O=C(O)c1cccnc1 | inactive: > 100 µM
84 | O=c1[nH]c2ccc(CC(=S)N3CCN(c4ccccc4)CC3)cc2o1 | inactive: > 100 µM
85 | Oc1c(-c2ccccc2)nc2ccccn12 | inactive: > 100 µM
86 | CCOC(=O)NC(OCc1ccccc1)(C(=O)OC)C(F)(F)F (stereo unspecified) | inactive: > 100 µM
87 | CC(=O)[C@@]1(c2ccccc2)CC2(CCN(C)CC2)O[C@H]1C | inactive: > 100 µM
88 | CC(=O)NC1=C(Nc2ccc(C)cc2)C(=O)c2ccccc2C1=O | inactive: 12.8 µM
89 | c1ccc2c(c1)OC(N1CCCC1)c1cnc(N3CCCC3)nc1-2 (stereo unspecified) | inactive: 62.1 µM
90 | COc1ccc2c(c1)CC[C@@H]1[C@@H]2CC[C@]2(C)/C(=N/OCCN3CCCCC3)CC[C@@H]12 | inactive: 3.65 µM
91 | COC(=O)CN(CC(=O)NCCCBr)C1CCCCC1N(CC(=O)OC)CC(=O)OC (stereo unspecified) | inactive: > 100 µM

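Protocol summary: plate cells (96-well), add compound at 5 concentrations, incubate 48 h, interpolate endpoints linearly. The concentration for 50% growth inhibition is given as GI50.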 Calls of active or inactive are those of the source. Cut-off read from the data, not from the text of the source: active = GI50 up to about 1.1 µM and inactive = higher.
